# Reference: patent US20170368082A1, “FORMULATIONS OF BRINCIDOFOVIR” (priority 2016, published 2017)
# The source gives many values for each of these; only a part stands here.
# Assay: Tissue distribution by quantitative whole-body autoradiography (QWBA)
# Format: in vivo, male Sprague Dawley and Long-Evans rats
# Details: 15 mg/kg IV
# Description: The study utilized 4 groups of male SD rats (albino), and 3 groups of male LE rats (pigmented); a total of 39 rats. All animals were obtained from Hilltop Lab Animals, Inc. (Scottdale, Pa.). […] Rats in Group 5 were administered a single 2-h IV infusion of [^14C]brincidofovir at a target dose of 2 mg/kg. […] Three dosing formulations (one for high dose IV, one for low dose IV, and one for PO dose) were prepared at QPS on the day of dosing. The IV formulation for Groups 1, 2, 3, and 4 contained a vehicle of 10 mM sodium phosphate buffer in 5% dextrose solution at pH 8.0(±0.1).
# Each animal, at their respective termination time points, was euthanized for QWBA analysis immediately after blood collection. One rat per time point per Group was euthanized as listed below.
# The blood samples were maintained on wet ice (approximately 4° C.) and then centrifuged to obtain plasma within 1 h of the blood collection time. Centrifuge settings were recorded in the study notebook. Duplicate aliquots of plasma (0.050 mL) were analyzed for radioactivity using direct counting by LSC, and residual plasma was stored at approximately −70° C. and was saved for possible future analysis under a separate study protocol. Residual red blood cells were discarded as radioactive waste.
# The pinna, distal limbs, hair, and tail were removed from each frozen carcass and each frozen carcass was embedded in an aqueous suspension of approximately 2% (w/v) carboxymethylcellulose and frozen into a block. The blocks were stored at approximately −20° C. prior to sectioning. Each blocked carcass was mounted on the object stage of a cryomicrotome (Leica CM3600 Cryomacrocut, Nussloch, Germany and Vibratome 9800, St. Louis, Mo.) maintained at approximately −20° C. and internal standards (3), which were plasma fortified with [^14C]-glucose at one concentration (approximately 0.05 μCi/mL), were placed into the frozen blocks, prior to sectioning, and were used for section thickness quality control. A number of whole-body sections (approximately 40 μm thick) were taken in the sagittal plane at various levels of interest using a whole-body cryomicrotome set at −20° C. Sagittal sections (20-50 μm thick) of frozen carcasses were exposed to phosphor imaging plates. Regions of images in tissues were converted to concentrations using standards. All of the major tissues, organs, and biological fluids were represented.
# Tissue concentration data was determined for the following tissues and/or contents: adipose (brown and white), adrenal gland, bile (in duct), blood (cardiac), bone, bone marrow, brain (cerebrum, cerebellum, medulla), cecum (and contents), large intestine (and contents), epididymis, esophagus, eye (uvea and lens), Harderian gland, heart, kidney (cortex and medulla), liver, lung, lymph node, pancreas, pituitary gland, prostate gland, salivary gland, seminal vesicles, skeletal muscle, skin (pigmented and non-pigmented), small intestine (and contents), stomach (gastric mucosa and contents), spleen, spinal cord, testis, thymus, thyroid, and urinary bladder (and contents).
# The imaging plate and sections were placed in light-tight exposure cassettes, in a copper-lined lead safe, for a 4-day exposure at room temperature. […] Quantification was performed by image densitometry using MCD image analysis software (v. 7.0, Interfocus Imaging Ltd) and a standard curve constructed from the integrated response [i.e., Molecular Dynamics Counts per square millimeter (MDC/mm^2)] and the nominal concentrations of the ^14C-calibration standards. The concentrations of radioactivity were expressed as the μg equivalents of [^14C]brincidofovir per gram sample (μg equiv/g). A lower limit of quantification (LLOQ) was applied to the data (See section 6.7.4).
# Tissue concentrations that fell below the LLOQ were identified as being below the quantification limit (BQL). Tissue areas that were not visualized on autoradiographic images were identified as no sample (NS) and reported as BQL.
smiles,measurement,setting,value
CCCCCCCCCCCCCCCCOCCCOP(=O)(O)CO[C@H](CO)Cn1ccc(N)nc1=O [[^14C]brincidofovir],Concentration of radioactivity,"Small Intestine (contents), 2 h, SD rat",95.869 μg equiv./g
same,Concentration of radioactivity,"Small Intestine (contents), 4 h, LE rat",55.541 μg equiv/g tissue
same,Concentration of radioactivity,"Small Intestine (contents), 8 h, LE rat",22.421 μg equiv/g tissue
same,Concentration of radioactivity,"Small Intestine (contents), 24 h, LE rat",0.962 μg equiv/g tissue
same,Concentration of radioactivity,"Small Intestine (contents), 24 h, SD rat",66.664 μg equiv./g
same,Concentration of radioactivity,"Small Intestine (contents), 72 h, LE rat",0.615 μg equiv/g tissue
same,Concentration of radioactivity,"Small Intestine (contents), 96 h, LE rat",0.120 μg equiv/g tissue
same,Concentration of radioactivity,"Small Intestine (contents), 168 h, LE rat",BQL (BQL = Value is below the LLOQ)
same,Concentration of radioactivity,"Small Intestine (contents), 168 h, SD rat",0.039 μg equiv./g
same,Concentration of radioactivity,"Small Intestine (contents), 840 h, LE rat",BQL (BQL = Value is below the LLOQ)
same,Concentration of radioactivity,"Small Intestine, 1 h, LE rat",6.622 μg equiv/g tissue
same,Concentration of radioactivity,"Small Intestine, 2 h, LE rat",71.029 μg equiv/g tissue
same,Concentration of radioactivity,"Small Intestine, 2 h, SD rat",43.741 μg equiv./g
same,Concentration of radioactivity,"Small Intestine, 4 h, LE rat",42.479 μg equiv/g tissue
same,Concentration of radioactivity,"Small Intestine, 8 h, LE rat",48.384 μg equiv/g tissue
same,Concentration of radioactivity,"Small Intestine, 24 h, LE rat",3.184 μg equiv/g tissue
same,Concentration of radioactivity,"Small Intestine, 24 h, SD rat",6.290 μg equiv./g
same,Concentration of radioactivity,"Small Intestine, 72 h, LE rat",4.569 μg equiv/g tissue
same,Concentration of radioactivity,"Small Intestine, 96 h, LE rat",0.911 μg equiv/g tissue
same,Concentration of radioactivity,"Small Intestine, 168 h, LE rat",0.339 μg equiv/g tissue
same,Concentration of radioactivity,"Small Intestine, 168 h, SD rat",1.704 μg equiv./g
same,Concentration of radioactivity,"Small Intestine, 840 h, LE rat",BQL (BQL = Value is below the LLOQ)
same,Concentration of radioactivity,"Spinal Cord, 1 h, LE rat",0.462 μg equiv/g tissue
same,Concentration of radioactivity,"Spinal Cord, 2 h, LE rat",0.940 μg equiv/g tissue
same,Concentration of radioactivity,"Spinal Cord, 4 h, LE rat",0.277 μg equiv/g tissue
same,Concentration of radioactivity,"Spinal Cord, 8 h, LE rat",0.116 μg equiv/g tissue
same,Concentration of radioactivity,"Spinal Cord, 24 h, LE rat",0.060 μg equiv/g tissue
same,Concentration of radioactivity,"Spinal Cord, 72 h, LE rat",BQL (BQL = Value is below the LLOQ)
same,Concentration of radioactivity,"Spinal Cord, 96 h, LE rat",BQL (BQL = Value is below the LLOQ)
same,Concentration of radioactivity,"Spinal Cord, 168 h, LE rat",BQL (BQL = Value is below the LLOQ)
same,Concentration of radioactivity,"Spinal Cord, 840 h, LE rat",BQL (BQL = Value is below the LLOQ)
same,Concentration of radioactivity,"Spleen, 1 h, LE rat",2.081 μg equiv/g tissue
same,Concentration of radioactivity,"Spleen, 2 h, LE rat",4.314 μg equiv/g tissue
same,Concentration of radioactivity,"Spleen, 4 h, LE rat",3.249 μg equiv/g tissue
same,Concentration of radioactivity,"Spleen, 8 h, LE rat",2.728 μg equiv/g tissue
same,Concentration of radioactivity,"Spleen, 24 h, LE rat",1.870 μg equiv/g tissue
same,Concentration of radioactivity,"Spleen, 72 h, LE rat",1.675 μg equiv/g tissue
same,Concentration of radioactivity,"Spleen, 96 h, LE rat",1.106 μg equiv/g tissue
same,Concentration of radioactivity,"Spleen, 168 h, LE rat",0.892 μg equiv/g tissue
same,Concentration of radioactivity,"Spleen, 840 h, LE rat",0.273 μg equiv/g tissue
same,Concentration of radioactivity,"Stomach (contents), 1 h, LE rat",1.125 μg equiv/g tissue
same,Concentration of radioactivity,"Stomach (contents), 2 h, LE rat",6.178 μg equiv/g tissue
same,Concentration of radioactivity,"Stomach (contents), 2 h, SD rat",3.827 μg equiv./g
same,Concentration of radioactivity,"Stomach (contents), 4 h, LE rat",0.960 μg equiv/g tissue
same,Concentration of radioactivity,"Stomach (contents), 8 h, LE rat",10.997 μg equiv/g tissue
same,Concentration of radioactivity,"Stomach (contents), 24 h, LE rat",0.170 μg equiv/g tissue
same,Concentration of radioactivity,"Stomach (contents), 24 h, SD rat",26.408 μg equiv./g
same,Concentration of radioactivity,"Stomach (contents), 72 h, LE rat",0.080 μg equiv/g tissue
same,Concentration of radioactivity,"Stomach (contents), 96 h, LE rat",BQL (BQL = Value is below the LLOQ)
same,Concentration of radioactivity,"Stomach (contents), 168 h, LE rat",BQL (BQL = Value is below the LLOQ)
same,Concentration of radioactivity,"Stomach (contents), 168 h, SD rat",0.051 μg equiv./g
same,Concentration of radioactivity,"Stomach (contents), 840 h, LE rat",BQL (BQL = Value is below the LLOQ)
same,Concentration of radioactivity,"Stomach (gastric mucosa), 1 h, LE rat",1.446 μg equiv/g tissue
same,Concentration of radioactivity,"Stomach (gastric mucosa), 2 h, LE rat",2.518 μg equiv/g tissue
same,Concentration of radioactivity,"Stomach (gastric mucosa), 2 h, SD rat",3.777 μg equiv./g
same,Concentration of radioactivity,"Stomach (gastric mucosa), 4 h, LE rat",1.430 μg equiv/g tissue
same,Concentration of radioactivity,"Stomach (gastric mucosa), 8 h, LE rat",1.223 μg equiv/g tissue
same,Concentration of radioactivity,"Stomach (gastric mucosa), 24 h, LE rat",0.295 μg equiv/g tissue
same,Concentration of radioactivity,"Stomach (gastric mucosa), 24 h, SD rat",1.333 μg equiv./g
same,Concentration of radioactivity,"Stomach (gastric mucosa), 72 h, LE rat",0.225 μg equiv/g tissue
same,Concentration of radioactivity,"Stomach (gastric mucosa), 96 h, LE rat",0.110 μg equiv/g tissue
same,Concentration of radioactivity,"Stomach (gastric mucosa), 168 h, LE rat",0.069 μg equiv/g tissue
same,Concentration of radioactivity,"Stomach (gastric mucosa), 168 h, SD rat",0.062 μg equiv./g
same,Concentration of radioactivity,"Stomach (gastric mucosa), 840 h, LE rat",BQL (BQL = Value is below the LLOQ)
same,Concentration of radioactivity,"Testis, 1 h, LE rat",0.595 μg equiv/g tissue
same,Concentration of radioactivity,"Testis, 2 h, LE rat",1.321 μg equiv/g tissue
same,Concentration of radioactivity,"Testis, 4 h, LE rat",1.021 μg equiv/g tissue
same,Concentration of radioactivity,"Testis, 8 h, LE rat",0.802 μg equiv/g tissue
same,Concentration of radioactivity,"Testis, 24 h, LE rat",0.285 μg equiv/g tissue
same,Concentration of radioactivity,"Testis, 72 h, LE rat",0.240 μg equiv/g tissue
same,Concentration of radioactivity,"Testis, 96 h, LE rat",0.196 μg equiv/g tissue
same,Concentration of radioactivity,"Testis, 168 h, LE rat",0.098 μg equiv/g tissue
same,Concentration of radioactivity,"Testis, 840 h, LE rat",BQL (BQL = Value is below the LLOQ)
same,Concentration of radioactivity,"Thymus, 1 h, LE rat",1.223 μg equiv/g tissue
same,Concentration of radioactivity,"Thymus, 2 h, LE rat",2.125 μg equiv/g tissue
same,Concentration of radioactivity,"Thymus, 4 h, LE rat",1.205 μg equiv/g tissue
same,Concentration of radioactivity,"Thymus, 8 h, LE rat",1.107 μg equiv/g tissue
same,Concentration of radioactivity,"Thymus, 24 h, LE rat",0.403 μg equiv/g tissue
same,Concentration of radioactivity,"Thymus, 72 h, LE rat",0.359 μg equiv/g tissue
same,Concentration of radioactivity,"Thymus, 96 h, LE rat",0.215 μg equiv/g tissue
same,Concentration of radioactivity,"Thymus, 168 h, LE rat",0.100 μg equiv/g tissue
same,Concentration of radioactivity,"Thymus, 840 h, LE rat",BQL (BQL = Value is below the LLOQ)
same,Concentration of radioactivity,"Thyroid, 1 h, LE rat",1.486 μg equiv/g tissue
same,Concentration of radioactivity,"Thyroid, 2 h, LE rat",2.454 μg equiv/g tissue
same,Concentration of radioactivity,"Thyroid, 4 h, LE rat",1.884 μg equiv/g tissue
same,Concentration of radioactivity,"Thyroid, 8 h, LE rat",1.532 μg equiv/g tissue
same,Concentration of radioactivity,"Thyroid, 24 h, LE rat",0.567 μg equiv/g tissue
same,Concentration of radioactivity,"Thyroid, 72 h, LE rat",0.376 μg equiv/g tissue
same,Concentration of radioactivity,"Thyroid, 96 h, LE rat",0.197 μg equiv/g tissue
same,Concentration of radioactivity,"Thyroid, 168 h, LE rat",0.459 μg equiv/g tissue
same,Concentration of radioactivity,"Thyroid, 840 h, LE rat",BQL (BQL = Value is below the LLOQ)
same,Concentration of radioactivity,"Urinary Bladder (contents), 1 h, LE rat",19.057 μg equiv/g tissue
same,Concentration of radioactivity,"Urinary Bladder (contents), 2 h, LE rat",26.805 μg equiv/g tissue
same,Concentration of radioactivity,"Urinary Bladder (contents), 4 h, LE rat",814.445 μg equiv/g tissue
same,Concentration of radioactivity,"Urinary Bladder (contents), 8 h, LE rat",82.440 μg equiv/g tissue
same,Concentration of radioactivity,"Urinary Bladder (contents), 24 h, LE rat",22.258 μg equiv/g tissue
same,Concentration of radioactivity,"Urinary Bladder (contents), 72 h, LE rat",1.911 μg equiv/g tissue
same,Concentration of radioactivity,"Urinary Bladder (contents), 96 h, LE rat",0.357 μg equiv/g tissue
same,Concentration of radioactivity,"Urinary Bladder (contents), 168 h, LE rat",0.104 μg equiv/g tissue
same,Concentration of radioactivity,"Urinary Bladder (contents), 840 h, LE rat",BQL (BQL = Value is below the LLOQ)
same,Concentration of radioactivity,"Urinary Bladder, 1 h, LE rat",6.053 μg equiv/g tissue
same,Concentration of radioactivity,"Urinary Bladder, 2 h, LE rat",5.004 μg equiv/g tissue
same,Concentration of radioactivity,"Urinary Bladder, 4 h, LE rat",22.781 μg equiv/g tissue
same,Concentration of radioactivity,"Urinary Bladder, 8 h, LE rat",5.643 μg equiv/g tissue
same,Concentration of radioactivity,"Urinary Bladder, 24 h, LE rat",1.885 μg equiv/g tissue
same,Concentration of radioactivity,"Urinary Bladder, 72 h, LE rat",0.336 μg equiv/g tissue
same,Concentration of radioactivity,"Urinary Bladder, 96 h, LE rat",0.100 μg equiv/g tissue
same,Concentration of radioactivity,"Urinary Bladder, 168 h, LE rat",BQL (BQL = Value is below the LLOQ)
same,Concentration of radioactivity,"Urinary Bladder, 840 h, LE rat",BQL (BQL = Value is below the LLOQ)
